{"source": "the supplement of paper PMC12230231", "note": "± gives the standard deviation of the averaged measurements. Restriction of a single-cycle SIVsab GFP reporter by TRIM5α v1-loop variants in CRFK cells. Human variants: read share among cells still uninfected after two challenges over input, higher = gained restriction. Rhesus variants: share among infected cells over input, higher = lost restriction. Reporter dose not given per row. No active / inactive call per row; the paper calls a change when both replicates lie above its controls (mean + 2 SD of stop or wild-type variants, or the top frameshift score). Residues outside the varied loop are taken from Swiss-Prot. The paper reads the human single-substitution scores as noise; they and the rhesus combinations repeat poorly (rank correlation 0.3 to 0.4), indel scores repeat only for the top variants, rhesus substitutions well (0.9)."}
{"test_system": "SIVsab (simian immunodeficiency virus of sabaeus monkeys), single-cycle GFP reporter, in CRFK cells", "assay": "enrichment among uninfected cells over input (fold); higher = stronger restriction", "conditions": "library: human / rhesus combinations", "description": "(§1)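 Pools of CRFK cells expressing variants of the TRIM5α v1 loop were challenged with the single-cycle reporter, sorted by GFP and sequenced; mean of two replicates.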"}
{"sequence": "MASGILVNVKEEVTCPICLELLTQPLSLDCGHSFCQACLTANHKKSMLDKGESSCPVCRISYQPENIRPNRHVANIVEKLREVKLSPEGQKVDHCARHGEKLLLFCQEDGKVICWLCERSQEHRGHHTFLTEEVAREYQVKLQAALEMLRQKQQEAEELEADIREEKASWKTQIQYDKTNVLADFEQLRDILDWEESNELQNLEKEEEDILKSLTNSETEMVQQTQSLRELISDLEHRLQGSVMELLQGVDGVIKRTENVTLKKPETFPKNQRRVFRAPDLKGMLEVFRELTDVRRYWVDVTVAPNNISCAVISEDKRQVSSPKPQIIYQAPGTRFTFPSFTNFNYCTGILGSQSITSGKHYWEVDVSKKTAWILGVCAGFQPDAMCNIEKNENYQPKYGYWVIGLEEGVKCSAFQDSSFHTPSVPFIVPLSVIICPDRVGVFLDYEACTVSFFNITNHGFLIYKFSHCSFSQPVFPYLNPRKCGVPMTLCSPSS [human TRIM5α, 330-340 = QAPGTRFTFPSFT]", "enrichment": "2.47 ± 0.45"}
{"sequence": "MASGILVNVKEEVTCPICLELLTQPLSLDCGHSFCQACLTANHKKSMLDKGESSCPVCRISYQPENIRPNRHVANIVEKLREVKLSPEGQKVDHCARHGEKLLLFCQEDGKVICWLCERSQEHRGHHTFLTEEVAREYQVKLQAALEMLRQKQQEAEELEADIREEKASWKTQIQYDKTNVLADFEQLRDILDWEESNELQNLEKEEEDILKSLTNSETEMVQQTQSLRELISDLEHRLQGSVMELLQGVDGVIKRTENVTLKKPETFPKNQRRVFRAPDLKGMLEVFRELTDVRRYWVDVTVAPNNISCAVISEDKRQVSSPKPQIIYQAPGTRYTFQTFTNFNYCTGILGSQSITSGKHYWEVDVSKKTAWILGVCAGFQPDAMCNIEKNENYQPKYGYWVIGLEEGVKCSAFQDSSFHTPSVPFIVPLSVIICPDRVGVFLDYEACTVSFFNITNHGFLIYKFSHCSFSQPVFPYLNPRKCGVPMTLCSPSS [human TRIM5α, 330-340 = QAPGTRYTFQTFT]", "enrichment": "0.141 ± 0.069"}
{"sequence": "MASGILVNVKEEVTCPICLELLTQPLSLDCGHSFCQACLTANHKKSMLDKGESSCPVCRISYQPENIRPNRHVANIVEKLREVKLSPEGQKVDHCARHGEKLLLFCQEDGKVICWLCERSQEHRGHHTFLTEEVAREYQVKLQAALEMLRQKQQEAEELEADIREEKASWKTQIQYDKTNVLADFEQLRDILDWEESNELQNLEKEEEDILKSLTNSETEMVQQTQSLRELISDLEHRLQGSVMELLQGVDGVIKRTENVTLKKPETFPKNQRRVFRAPDLKGMLEVFRELTDVRRYWVDVTVAPNNISCAVISEDKRQVSSPKPQIIYGARGTLYTFPSLTNFNYCTGILGSQSITSGKHYWEVDVSKKTAWILGVCAGFQPDAMCNIEKNENYQPKYGYWVIGLEEGVKCSAFQDSSFHTPSVPFIVPLSVIICPDRVGVFLDYEACTVSFFNITNHGFLIYKFSHCSFSQPVFPYLNPRKCGVPMTLCSPSS [human TRIM5α, 330-340 = GARGTLYTFPSLT]", "enrichment": "0.0745 ± 0.027"}
{"sequence": "MASGILVNVKEEVTCPICLELLTQPLSLDCGHSFCQACLTANHKKSMLDKGESSCPVCRISYQPENIRPNRHVANIVEKLREVKLSPEGQKVDHCARHGEKLLLFCQEDGKVICWLCERSQEHRGHHTFLTEEVAREYQVKLQAALEMLRQKQQEAEELEADIREEKASWKTQIQYDKTNVLADFEQLRDILDWEESNELQNLEKEEEDILKSLTNSETEMVQQTQSLRELISDLEHRLQGSVMELLQGVDGVIKRTENVTLKKPETFPKNQRRVFRAPDLKGMLEVFRELTDVRRYWVDVTVAPNNISCAVISEDKRQVSSPKPQIIYGARGTLFTFPSLVNFNYCTGILGSQSITSGKHYWEVDVSKKTAWILGVCAGFQPDAMCNIEKNENYQPKYGYWVIGLEEGVKCSAFQDSSFHTPSVPFIVPLSVIICPDRVGVFLDYEACTVSFFNITNHGFLIYKFSHCSFSQPVFPYLNPRKCGVPMTLCSPSS [human TRIM5α, 330-340 = GARGTLFTFPSLV]", "enrichment": "0.477 ± 0.21"}
{"sequence": "MASGILVNVKEEVTCPICLELLTQPLSLDCGHSFCQACLTANHKKSMLDKGESSCPVCRISYQPENIRPNRHVANIVEKLREVKLSPEGQKVDHCARHGEKLLLFCQEDGKVICWLCERSQEHRGHHTFLTEEVAREYQVKLQAALEMLRQKQQEAEELEADIREEKASWKTQIQYDKTNVLADFEQLRDILDWEESNELQNLEKEEEDILKSLTNSETEMVQQTQSLRELISDLEHRLQGSVMELLQGVDGVIKRTENVTLKKPETFPKNQRRVFRAPDLKGMLEVFRELTDVRRYWVDVTVAPNNISCAVISEDKRQVSSPKPQIIYGARGTRYTFPTFTNFNYCTGILGSQSITSGKHYWEVDVSKKTAWILGVCAGFQPDAMCNIEKNENYQPKYGYWVIGLEEGVKCSAFQDSSFHTPSVPFIVPLSVIICPDRVGVFLDYEACTVSFFNITNHGFLIYKFSHCSFSQPVFPYLNPRKCGVPMTLCSPSS [human TRIM5α, 330-340 = GARGTRYTFPTFT]", "enrichment": "0.612 ± 0.056"}
{"test_system": "SIVsab (simian immunodeficiency virus of sabaeus monkeys), single-cycle GFP reporter, in CRFK cells", "assay": "enrichment among uninfected cells over input (fold); higher = stronger restriction", "conditions": "library: insertions and deletions", "description": "as §1"}
{"sequence": "MASGILVNVKEEVTCPICLELLTQPLSLDCGHSFCQACLTANHKKSMLDKGESSCPVCRISYQPENIRPNRHVANIVEKLREVKLSPEGQKVDHCARHGEKLLLFCQEDGKVICWLCERSQEHRGHHTFLTEEVAREYQVKLQAALEMLRQKQQEAEELEADIREEKASWKTQIQYDKTNVLADFEQLRDILDWEESNELQNLEKEEEDILKSLTNSETEMVQQTQSLRELISDLEHRLQGSVMELLQGVDGVIKRTENVTLKKPETFPKNQRRVFRAPDLKGMLEVFRELTDVRRYWVDVTVAPNNISCAVISEDKRQVSSPKPQIIYGARGTRYCTGILGSQSITSGKHYWEVDVSKKTAWILGVCAGFQPDAMCNIEKNENYQPKYGYWVIGLEEGVKCSAFQDSSFHTPSVPFIVPLSVIICPDRVGVFLDYEACTVSFFNITNHGFLIYKFSHCSFSQPVFPYLNPRKCGVPMTLCSPSS [human TRIM5α, 8-codon deletion at 336]", "enrichment": "0.874 ± 0.6"}
{"sequence": "MASGILVNVKEEVTCPICLELLTQPLSLDCGHSFCQACLTANHKKSMLDKGESSCPVCRISYQPENIRPNRHVANIVEKLREVKLSPEGQKVDHCARHGEKLLLFCQEDGKVICWLCERSQEHRGHHTFLTEEVAREYQVKLQAALEMLRQKQQEAEELEADIREEKASWKTQIQYDKTNVLADFEQLRDILDWEESNELQNLEKEEEDILKSLTNSETEMVQQTQSLRELISDLEHRLQGSVMELLQGVDGVIKRTENVTLKKPETFPKNQRRVFRAPDLKGMLEVFRELTDVRRYWVDVTVAPNNISCAVISEDKRQVSSPKPQKPQIIYGARGTRYQTFVNFNYCTGILGSQSITSGKHYWEVDVSKKTAWILGVCAGFQPDAMCNIEKNENYQPKYGYWVIGLEEGVKCSAFQDSSFHTPSVPFIVPLSVIICPDRVGVFLDYEACTVSFFNITNHGFLIYKFSHCSFSQPVFPYLNPRKCGVPMTLCSPSS [human TRIM5α, 3-codon duplication at 324]", "enrichment": "0.213 ± 0.14"}
{"sequence": "MASGILVNVKEEVTCPICLELLTQPLSLDCGHSFCQACLTANHKKSMLDKGESSCPVCRISYQPENIRPNRHVANIVEKLREVKLSPEGQKVDHCARHGEKLLLFCQEDGKVICWLCERSQEHRGHHTFLTEEVAREYQVKLQAALEMLRQKQQEAEELEADIREEKASWKTQIQYDKTNVLADFEQLRDILDWEESNELQNLEKEEEDILKSLTNSETEMVQQTQSLRELISDLEHRLQGSVMELLQGVDGVIKRTENVTLKKPETFPKNQRRVFRAPDLKGMLEVFRELTDVRRYWVDVTVAPNNISCAVISEDKRQVSSPKPQIIYGARGTRYQTFVNFVNFNYCTGILGSQSITSGKHYWEVDVSKKTAWILGVCAGFQPDAMCNIEKNENYQPKYGYWVIGLEEGVKCSAFQDSSFHTPSVPFIVPLSVIICPDRVGVFLDYEACTVSFFNITNHGFLIYKFSHCSFSQPVFPYLNPRKCGVPMTLCSPSS [human TRIM5α, 3-codon duplication at 339]", "enrichment": "0.572 ± 0.28"}
{"sequence": "MASGILVNVKEEVTCPICLELLTQPLSLDCGHSFCQACLTANHKKSMLDKGESSCPVCRISYQPENIRPNRHVANIVEKLREVKLSPEGQKVDHCARHGEKLLLFCQEDGKVICWLCERSQEHRGHHTFLTEEVAREYQVKLQAALEMLRQKQQEAEELEADIREEKASWKTQIQYDKTNVLADFEQLRDILDWEESNELQNLEKEEEDILKSLTNSETEMVQQTQSLRELISDLEHRLQGSVMELLQGVDGVIKRTENVTLKKPETFPKNQRRVFRAPDLKGMLEVFRELTDVRRYWVDVTVAPNNISCAVISEDKRQVSSPKPQIIYGARGTRYQTFVNYCTGILGSQSITSGKHYWEVDVSKKTAWILGVCAGFQPDAMCNIEKNENYQPKYGYWVIGLEEGVKCSAFQDSSFHTPSVPFIVPLSVIICPDRVGVFLDYEACTVSFFNITNHGFLIYKFSHCSFSQPVFPYLNPRKCGVPMTLCSPSS [human TRIM5α, 2-codon deletion at 341]", "enrichment": "0.313 ± 0.12"}
{"sequence": "MASGILVNVKEEVTCPICLELLTQPLSLDCGHSFCQACLTANHKKSMLDKGESSCPVCRISYQPENIRPNRHVANIVEKLREVKLSPEGQKVDHCARHGEKLLLFCQEDGKVICWLCERSQEHRGHHTFLTEEVAREYQVKLQAALEMLRQKQQEAEELEADIREEKASWKTQIQYDKTNVLADFEQLRDILDWEESNELQNLEKEEEDILKSLTNSETEMVQQTQSLRELISDLEHRLQGSVMELLQGVDGVIKRTENVTLKKPETFPKNQRRVFRAPDLKGMLEVFRELTDVRRYWVDVTVAPNNISCAVISEDKRQVSSPKPQIIYGARGTRYQTFVNFNYSQSITSGKHYWEVDVSKKTAWILGVCAGFQPDAMCNIEKNENYQPKYGYWVIGLEEGVKCSAFQDSSFHTPSVPFIVPLSVIICPDRVGVFLDYEACTVSFFNITNHGFLIYKFSHCSFSQPVFPYLNPRKCGVPMTLCSPSS [human TRIM5α, 6-codon deletion at 345]", "enrichment": "1.17 ± 0.94"}
{"sequence": "MASGILVNVKEEVTCPICLELLTQPLSLDCGHSFCQACLTANHKKSMLDKGESSCPVCRISYQPENIRPNRHVANIVEKLREVKLSPEGQKVDHCARHGEKLLLFCQEDGKVICWLCERSQEHRGHHTFLTEEVAREYQVKLQAALEMLRQKQQEAEELEADIREEKASWKTQIQYDKTNVLADFEQLRDILDWEESNELQNLEKEEEDILKSLTNSETEMVQQTQSLRELISDLEHRLQGSVMELLQGVDGVIKRTENVTLKKPETFPKNQRRVFRAPDLKGMLEVFRELTDVRRYWVDVTVAPNNISCAVISEDKRQVSSPKPQIIYGARGTRYQTFVNTRYQTFVNFNYCTGILGSQSITSGKHYWEVDVSKKTAWILGVCAGFQPDAMCNIEKNENYQPKYGYWVIGLEEGVKCSAFQDSSFHTPSVPFIVPLSVIICPDRVGVFLDYEACTVSFFNITNHGFLIYKFSHCSFSQPVFPYLNPRKCGVPMTLCSPSS [human TRIM5α, 8-codon duplication at 334]", "enrichment": "0.217 ± 0.08"}
{"sequence": "MASGILVNVKEEVTCPICLELLTQPLSLDCGHSFCQACLTANHKKSMLDKGESSCPVCRISYQPENIRPNRHVANIVEKLREVKLSPEGQKVDHCARHGEKLLLFCQEDGKVICWLCERSQEHRGHHTFLTEEVAREYQVKLQAALEMLRQKQQEAEELEADIREEKASWKTQIQYDKTNVLADFEQLRDILDWEESNELQNLEKEEEDILKSLTNSETEMVQQTQSLRELISDLEHRLQGSVMELLQGVDGVIKRTENVTLKKPETFPKNQRRVFRAPDLKGMLEVFRELTDVRRYWVDVTVAPNNISCAVISEDKRQVSSPKPQIIYGARGIIYGARGTRYQTFVNFNYCTGILGSQSITSGKHYWEVDVSKKTAWILGVCAGFQPDAMCNIEKNENYQPKYGYWVIGLEEGVKCSAFQDSSFHTPSVPFIVPLSVIICPDRVGVFLDYEACTVSFFNITNHGFLIYKFSHCSFSQPVFPYLNPRKCGVPMTLCSPSS [human TRIM5α, 7-codon duplication at 327]", "enrichment": "0.383 ± 0.38"}
